The values that follow come from PubChem BioAssay AID1508623 (National Center for Advancing Translational Sciences (NCATS), 2021).

SMILES strings stand for the structures. Among all 48,000 compounds or so, about 450 (0.94%) were called active. About 19% were inconclusive and are not listed. Calls follow the shape of the dose curve; as a rule, active = well fitted inhibition curve with a large enough effect; inconclusive = small, poorly fitted or top-dose-only effect; inactive = no such curve, though single readings can be large or run the other way. The list shows a part of the results.

The assay can be described thus: Primary qHTS for Identification of Small Molecule Inhibitors of Huntingtin Promoter Activity. Also: nearly all actives have a fitted effect of over 50% in size. Conditions: HEK293 HTT promoter firefly luciferase reporter (activity 0% = vehicle and -100% = no light), 24 h; series mostly up to 57.5 µM; activity change, negative = inhibition: at the top concentration. The gist of the method: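 HEK293 luciferase promoter-reporter cells (2,500/well) plated 24 h, then compounds added at up to 57.5 uM final for 24 h at 37 °C. Firefly luminescence by Dual-Glo, normalized to vehicle (0%) and zero RLU (-100%).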
In the case of `COc1cccc(NC2=CC(c3ccc(C(C)C)cc3)N(c3cccc(OC)c3)C2=O)c1` (stereo unspecified), the “activity change, negative = inhibition” value is inactive: 29%.

Regarding `Cc1c(C(=O)N(Cc2cccc(Cl)c2)Cc2ccco2)oc2ccccc12`, the “activity change, negative = inhibition” value is inactive: -17%.

In the case of `O=C(CSCc1ccc(F)cc1)NCc1ccc(F)cc1`, the “activity change, negative = inhibition” value is inactive: -3.2%.

On to `Cc1cccc(CC(=O)N2CC(=O)Nc3ccc(F)cc3C2c2ccccc2)c1` (stereo unspecified), for which the “activity change, negative = inhibition” value was inactive: -28.1%.

For the molecule `Cc1ccc(CNC(=O)CSc2c(C(C)C)cnc3c2c(=O)n(C)c(=O)n3C)cc1`, the “activity change, negative = inhibition” value was inactive: -22.3%.

As for `COc1cc(NC(=O)CCCc2nnc3n(C)c(=O)c4sccc4n23)cc(OC)c1OC`, the “activity change, negative = inhibition” value is inactive: -13.7%.

In the case of `CCc1ccccc1NC(=O)Nc1ccc2snnc2c1`, the “activity change, negative = inhibition” value was inactive: -23.4%.

As for `Cc1cccc(-n2ncc(C(=O)NCc3ccc4c(c3)OCO4)c2C2CCN(C(=O)OC(C)(C)C)CC2)c1`, the “activity change, negative = inhibition” value was inactive: -28.8%.

Consider `O=C(CSc1nc(Nc2ccc(F)c(F)c2)c2ccccc2n1)c1ccc(Cl)cc1`, for which the “activity change, negative = inhibition” value was inactive: -9.57%.

In the case of `CCCCN(C)CCNC(=O)c1cc(-c2ccc(Cl)s2)nc2ccccc12`, the “activity change, negative = inhibition” value was inactive: -14.9%.

Take `CCc1ccc(NC(=O)CN2C(=O)CC(c3ccccc3)Sc3ccccc32)cc1` (stereo unspecified): the “activity change, negative = inhibition” value was inactive: -35.4%.

For the molecule `CC(C)(C)OC(=O)N1CCC(c2c(C(=O)NCCN3CCOCC3)cnn2-c2ccc(F)cc2F)CC1`, the “activity change, negative = inhibition” value is inactive: -2.4%.

As to `CCOc1ccccc1Nc1nc2c(S(=O)(=O)c3ccc(C)cc3)nnn2c2ccsc12`, the “activity change, negative = inhibition” value is inactive: -7.48%.

For the molecule `CCOC(=O)c1c(-c2ccccc2)csc1NC(=O)c1nc(SCC)ncc1Cl`, the “activity change, negative = inhibition” value is inactive: -5.39%.

Take `CCc1cccc(C)c1NC(=O)CN1C(=O)c2cccc3cccc1c23`: the “activity change, negative = inhibition” value is inactive: -12.6%.

For `CCOc1cc(/C=C(\C#N)C(=O)Nc2ccc(OC)cc2)ccc1OCc1cc(=O)n2nc(CC)sc2n1`, the “activity change, negative = inhibition” value was inactive: -1.65%.

For `Cc1ccc2nc(CSc3nnc(NC(=O)c4ccc(C(C)(C)C)cc4)s3)cc(=O)n2c1`, the “activity change, negative = inhibition” value was inactive: -0.53%.

For `CC(=O)Nc1ccc(NC(=O)c2ncoc2-c2ccco2)cc1`, the “activity change, negative = inhibition” value was inactive: 11.2%.

Regarding `Cc1cccc(C)c1NC(=O)c1ccc(N)cc1`, the “activity change, negative = inhibition” value was inactive: 2.97%.

As to `COc1cccc(/C=C(\C#N)C(=O)Nc2ccc(NC(C)=O)cc2)c1OC`, the “activity change, negative = inhibition” value was inactive: -12.8%.

In the case of `Cc1oc(-c2cccc(Br)c2)nc1Cn1c(SCc2cccc(F)c2)nc2cccnc21`, the “activity change, negative = inhibition” value was inactive: -24.7%.

In the case of `CCCCC(O)/C=C(C)/C=C/C=C/C(=O)N1CCCC1=O` (stereo unspecified), the “activity change, negative = inhibition” value was inactive: -0.919%.

Turning to `COc1ccc(NC(=O)CCS(=O)(=O)c2ccc3c(c2)n(C)c(=O)c(=O)n3C)cc1Cl`, the “activity change, negative = inhibition” value is inactive: -13.7%.

For `CN1CCN(C2=Nc3cc(F)ccc3Cc3ccccc32)CC1`, the “activity change, negative = inhibition” value was inactive: -5.63%.

For `COc1ccc2c(c1)NC(c1ccc(Cl)cc1)=NC(c1cccs1)=N2`, the “activity change, negative = inhibition” value was inactive: -26%.

`Cc1ccc(S(=O)(=O)NCCSc2nnnn2-c2ccccc2)cc1`: the “activity change, negative = inhibition” value was inactive: -7.89%.

On to `CC(C)(C)c1ccc(-c2nnc(-c3ccccc3NC(=O)c3cccc(C(F)(F)F)c3)o2)cc1`, for which the “activity change, negative = inhibition” value is inactive: -8.4%.

For the molecule `CCCN1C(=O)C(Cc2nc3ccccc3c(=O)n2CC)c2cc(Br)ccc21` (stereo unspecified), the “activity change, negative = inhibition” value is inactive: -19.4%.

Take `Cc1ccc(C)c(Cn2c(=O)n(Cc3ccccc3)c(=O)c3sc4ccccc4c32)c1`: the “activity change, negative = inhibition” value was inactive: -15.6%.

Turning to `Cc1ccc(/C=C/c2onc(C)c2S(=O)(=O)N2CCC(C(=O)NCc3ccco3)CC2)cc1`, the “activity change, negative = inhibition” value is inactive: -10.3%.

As for `Cc1ccc(CCNC(=O)c2ccc3c(c2)N(Cc2cc(C)ccc2C)C(=O)c2ccccc2S3=O)cc1` (stereo unspecified), the “activity change, negative = inhibition” value is inactive: -18.1%.

With `CCN(CC)c1ccc(NC(=O)CN2C(=O)c3cccnc3Oc3ccccc32)c(C)c1`, the “activity change, negative = inhibition” value was inactive: -4.98%.

Consider `COc1ccc2c(c1)NC(c1ccc(F)cc1)=NC(c1ccc(F)cc1)=N2`, for which the “activity change, negative = inhibition” value is inactive: 23.8%.

For the molecule `COc1cccc(N2CCN(C(=O)CN3CCSc4ccc(S(=O)(=O)N(C)C)cc43)CC2)c1`, the “activity change, negative = inhibition” value is inactive: -24.6%.

For `COc1ccc(NC(=O)C2CCN(C3=NS(=O)(=O)C(c4ccc(C)c(C)c4)=C3C)CC2)cc1OC`, the “activity change, negative = inhibition” value is inactive: -24%.

`COc1ccc(CNC(=O)CCS(=O)(=O)c2cc(Br)cc3c2N(C(=O)C2CC2)CC3)cc1`: the “activity change, negative = inhibition” value was inactive: -0.467%.

In the case of `CCCCN(Cc1ccccc1)S(=O)(=O)c1ccc2c(c1)CCN2C(=O)C1CCC1`, the “activity change, negative = inhibition” value is inactive: -0.276%.

Take `O=C(Cn1nc(Cc2cccnc2)c2ccccc2c1=O)N1CCN(c2ccc(F)cc2)CC1`: the “activity change, negative = inhibition” value was inactive: -19.8%.

Consider `COc1ccc(Nc2ncnc3onc(C)c23)cc1Cl`, for which the “activity change, negative = inhibition” value was inactive: -20%.

With `CCCSCCCNC(=O)C1CCCN(C(=O)c2cnn(-c3ccccc3)c2-n2cccc2)C1` (stereo unspecified), the “activity change, negative = inhibition” value was inactive: -21.4%.

In the case of `CCN(C(=O)C(NS(=O)(=O)c1cccc2nsnc12)c1ccccc1)c1ccccc1` (stereo unspecified), the “activity change, negative = inhibition” value is inactive: -23.4%.

In the case of `COCCCNC(=O)CCCN1C(=O)CCn2nc(-c3cn(C)c4ccccc34)cc21`, the “activity change, negative = inhibition” value was inactive: -4.82%.

For the molecule `COc1ccc(-c2ccnc3c2c(=O)n(C)c(=O)n3C)cc1OC`, the “activity change, negative = inhibition” value was inactive: -2.58%.

Turning to `COc1ccc(OC)c(CNC(=O)CCS(=O)(=O)c2ccc3c(c2)oc(=O)n3C)c1`, the “activity change, negative = inhibition” value is inactive: 5.01%.

`Cc1ccc(NC(=O)[C@H](CSCc2ccccc2)N2Cc3ccccc3C2=O)cc1`: the “activity change, negative = inhibition” value was inactive: -6.33%.

For `Cc1cc(C)c(NC(=O)CN2C(=O)c3cccnc3Oc3ccc(Cl)cc32)c(C)c1`, the “activity change, negative = inhibition” value is inactive: -1.12%.

With `Cc1ccc(C(=O)N2c3nc(-c4ccco4)nn3C3(CCCCC3)[C@@H]3CCCC[C@@H]32)cc1`, the “activity change, negative = inhibition” value was inactive: -24.5%.

As for `Cc1cc(Nc2ccc(C)c(Cl)c2)n2nc(-c3ccccc3)nc2n1`, the “activity change, negative = inhibition” value was inactive: -2.02%.

For `CC1CCN(S(=O)(=O)c2cccc(C(=O)NC3CCS(=O)(=O)C3)c2)CC1` (stereo unspecified), the “activity change, negative = inhibition” value is inactive: -31.1%.

In the case of `O=C(CCNS(=O)(=O)c1cccc2nsnc12)Nc1ccc(F)cc1`, the “activity change, negative = inhibition” value was inactive: -1.66%.

For the molecule `COc1ccc(-c2nc3cc(NC(=O)COc4ccc(F)cc4)ccc3o2)cc1`, the “activity change, negative = inhibition” value was inactive: 4.5%.

`Cc1csc2nc(-c3cccc(NC(=O)c4ccc(S(N)(=O)=O)cc4)c3)cn12`: the “activity change, negative = inhibition” value was inactive: 24.9%.

On to `Cc1ccc2cccc(NC(=O)c3ccc(-c4ccc(Cl)cc4Cl)o3)c2n1`, for which the “activity change, negative = inhibition” value is inactive: -0.352%.

For the molecule `COc1ccc(OC)c(CNC(=O)c2cc(=O)[nH]c3ccc(S(=O)(=O)N4CCCCC4C)cc23)c1` (stereo unspecified), the “activity change, negative = inhibition” value is inactive: -10.2%.

On to `CCOc1ccc(-c2cc(C)n3nc(C(=O)Nc4cc(Cl)ccc4O)cc3n2)cc1`, for which the “activity change, negative = inhibition” value was inactive: -4.82%.

In the case of `COc1cccc(NC(=O)Cn2c(=O)n(Cc3nc(-c4ccccc4)no3)c(=O)c3ccccc32)c1`, the “activity change, negative = inhibition” value was inactive: -20.7%.

As to `COc1ccccc1/C=C(\C#N)c1nc(-c2cc3ccccc3oc2=O)cs1`, the “activity change, negative = inhibition” value is inactive: 7.13%.

With `CCC(=O)Nc1ccc(S(=O)(=O)NCc2cccn2Cc2cccc(C)c2)cc1`, the “activity change, negative = inhibition” value was inactive: -21.6%.

For `COc1ccc(S(=O)(=O)NCCc2sc(-c3ccccc3)nc2C)cc1OC`, the “activity change, negative = inhibition” value was inactive: -13%.

Take `CCOC(=O)N1CCC(NC(=O)c2cnn(-c3ccccc3)c2C2CCN(C(=O)OC(C)(C)C)CC2)CC1`: the “activity change, negative = inhibition” value was inactive: -2.21%.

Regarding `O=C(NCCC1=CCCCC1)c1ccc2c(c1)ncn2-c1cccc(Cl)c1`, the “activity change, negative = inhibition” value was inactive: 21.3%.
